Measured values taken from patent publication US5932217A, “Peptides which inhibit adhesion between leukocytes and endothelial cells” (priority 1994, dated 1999).
At least one peptide structure holds a part that was inferred or is arguable (an end, a ring closure or a residue). Where no end group is shown, it is not given here.

Legend:
[1] = tested on: rabbits challenged intracisternally with pneumococcus strain R6; test: Rabbit model for meningitis, intravenous FHA or peptides; format: in vivo; conditions: for Lactate / Protein: CSF at 6 hours
Procedure: The rabbit model was performed according to an established protocol. Specific pathogen free, New Zealand white rabbits (2 kg; Hare Marland, Nutley, N.J.) were anesthetized with valium (2.5 mg/kg, subcutaneously, Hoffman-LaRoche, Nutley, N.J.), ketamine (35 mg/kg, intramuscularly, Aveco, Fort Dodge, Iowa) and xylazine (5 mg/kg, intramuscularly, Miles Laboratories, Shawnee, Kans.) and a helmet of dental acrylic was affixed to the calvarium. Twenty four hours later, the rabbits were anesthetized with ethyl carbamate (1.75 g/kg; Aldrich Chemical Co., Milwaukee, Wis.) and pentobarbital (15 mg/kg; Abbott Laboratories, Abbott Park, Ill.) and placed in a stereotaxic frame. A spinal needle was introduced into the cisterna magna and 300 μl of CSF was withdrawn. The animals were challenged intracisternally with 10^8 heat killed, unencapsulated pneumococcus strain R6 introduced in 200 μl of saline (time 0). One hour later, animals were treated with peptides dissolved in 1 ml of saline by intravenous injection into the right marginal ear vein. The concentration of FHA was 0.1 μM and that of the FHA Ia, Factor X II, and scrambled FHA II peptides was 10 μM. For the acetyl-FHA II, acetyl/amide-FHA II, dimer of FHA II and trimer of FHA II peptides, the concentration was 10^-3 μM. The concentration of FHA II is given in the results section. Samples of CSF were withdrawn at hourly intervals after pneumococcal inoculation and leukocyte density was measured using a cell counter (Coulter Electronics Inc., Hialeah, Fla.). CSF samples were centrifuged at 10,000×g for 5 minutes and the supernatant was stored at -70° C. until assayed for protein concentration using the bicinchoninic acid method (BCA Kit, Pierce Chemical Co., Rockford Ill.) and for lactate concentration (Lactate Detection Kit, Sigma, St. Louis, Mo.). Statistically significant differences between treatments were determined by a one way analysis of variance test.
The anti-inflammatory effects of the administered peptides were assessed in the rabbit model for meningitis by the procedures described in Example 10. The animals received 1 ml of 1 uM peptide intravenously. In a slight departure from the protocol described in Example 10, samples of blood were drawn from the left marginal ear vein 30 minutes after the administration of the peptides to determine peripheral leukocyte concentrations.

[2] = tested on: Human neutrophils; test: Binding of 125I-Factor X to neutrophils; conditions: peptides 0.5 mM, native FHA 0.3 μM, mAb IB4 100 μg/ml
Procedure: Human Factor X (Sigma or Hematologic Technologies Inc.) was labeled with ^125 I using Iodogen (Pierce Chemical Co.) Human neutrophils were isolated from heparinized blood according to the manufacturer's specification using Neutrophil Isolation Medium (Cardinal Associates, Santa Fe, N.M.) and washed three times with 5 mM EDTA-phosphate-buffered saline (PBS), pH 7.2, at 4° C. To eliminate platelet contamination,neutrophils were incubated with autologous serum containing 5 mM EDTA for 30 mins. at 37° C., washed three times with ice-cold PBS, pH 7.2, and resuspended in RPMI 1640 tissue culture medium (Whittaker M. A. Bioproducts, Walkersville, Md.) at 4° C. Binding of ^125 I-Factor X to neutrophils was measured based on a method described by Altieri et al. (1991) Science 254: 1200-1202. Briefly, 200 μl of neutrophils (1.5×10^7 /ml) were supplemented with 17.5 μl of 50 mM CaCl2, stimulated with 3.5 μl of 100 μM NH2 -formyl-Met-Leu-Phe (Sigma), and mixed with 30 μl of 10.3 μg/ml ^125 I-Factor X and 100 μl of 1.75 mM of peptide. […] Aliquots of the supernatant (cell free ^125 I-Factor X) and the cell pellet (cell bound ^125 I-Factor X) were counted in a gamma-counter. Nonspecific binding (~50,000 cpm) was determined by adding a 100 fold excess of unlabeled Factor X, and subtracted from total radioactivity (~500,000 cpm for controls).

[3] = tested on: cerebral infarct from transient MCAO; test: Rat transient middle cerebral artery occlusion, cerebral infarct; format: in vivo; conditions: 2 hour MCAo, 2 day survival; 50 nmol i.v. then 150 nmol i.p. boluses
[4] = tested on: rats inoculated intracisternally with Haemophilus influenzae type b lipooligosaccharide; test: Rat meningitis model (H. influenzae LOS); format: in vivo; conditions: for Leukocytosis: CSF 4 hours after LOS
Procedure: The experiments were performed according to established protocols (Wispelway et al., 1988, J. Clin. Invest., 82: 1339-1346). Purified Haemophilus influenzae type b strain DL42 lipooligosaccharide (LOS) was prepared for inoculation by sonication for 30 minutes, dilution to the desired concentration (20 ng/50 μl) in normal saline or PBS, and sonication for an additional 15 to 30 minutes just prior to use.
Briefly, anesthetized female Wistar rats were placed under a micromanipulator and inoculated intracisternally with a 25 gauge needle. After removal of 50 μl of CSF (without visible blood contamination), rats were inoculated intracisternally with 50 μl (20 ng) of LOS using a 1 ml syringe with a 25 gauge needle. Ten to fifteen minutes after inoculation with LOS, the rats were treated by intravenous administration of the test substance: a solution of an FHA peptide in PBS, a solution of a control peptide in PBS, or an equal volume of PBS alone.
Three hours after LOS inoculation, 5 μCi of ^125 I-radiolabelled albumin in 50 μl normal saline was administered intravenously. One hour later, CSF was collected via intracisternal puncture and blood samples were collected via intracardiac puncture. CSF leukocytosis was determined by manually counting white blood cells using a hemacytometer, and blood-brain barrier permeability was determined as the percent of radioactivity in whole blood that was present in the CSF. Blood samples were obtained immediately prior to inoculation, immediately prior to treatment, and at 4 hours post-inoculation for determination of peripheral white blood cell concentrations.

With ETKEVDG [FHA II, ETKEVDG] the “mean leukocyte concentration/μl CSF” value ([1]; 7 hours after challenge, 10^-3 μM i.v.) was “ineffective”, the “mean leukocyte concentration/μl CSF” value ([1]; 7 hours after challenge, FHA 0.1 μM (25 μg per 2 kg), peptides 10 μM, i.v.) was 2645±1412 /μl CSF and the “reduction of CSF leukocytosis” value ([1]; 7 hours, FHA 0.1 μM, peptides 10 μM) was greater than 60%. It also gave a Lactate ([1]; 10^-3 μM) of 35.3 ± 6.7 mg/100 ml, a Protein ([1]; 10^-3 μM) of 2.45 ± 0.22 mg/ml CSF and a Lactate ([1]; FHA 0.1 μM, peptides 10 μM) of 25.5 ± 4.1 mg/100 ml. The Protein ([1]; FHA 0.1 μM, peptides 10 μM) was 1.4 ± 0.6 mg/ml CSF, the “anti-inflammatory activity at reduced concentration” value ([1]; concentrations reduced from 10 to 0.1 μM, FIG. 21) was “more potent anti-inflammatory activity than the corresponding Factor X peptide II” and the “inhibition of 125I-Factor X binding to neutrophils” value [2] was 87±8%.
For RGDPHQGVLAQGDIIMDAKG [FHA Ca], the “Total protein in CSF” value ([1]; 6 hours after intracisternal inoculation of pneumococci) was 1.18 ± 0.39 mg/mL, the “mean leukocyte density/μl CSF” value ([1]; 7 hours after challenge, FHA 0.1 μM (25 μg/animal), peptides 1 ml of 1 uM i.v.) was 2137±1498 cells/μl CSF and the “Total protein in CSF” value ([1]; 7 hours after intracisternal inoculation of pneumococci) was 1.69 ± 0.41 mg/mL. For the same substance, the “leukocyte migration into the CSF at reduced dose” value ([1]; dose of 0.1 μM, FIG. 29) was “still significantly reduced leukocyte migration into the CSF”, the “volume of the infarct” value [3] was “approximately 25 % of the hemisphere” and the Leukocytosis ([4]; Experiment #1, 50 nmol i.v.) was 9,100 ± 4,000 cells/ml. For the same substance, the Leukocytosis ([4]; Experiment #1, 50 nmol i.v., listed as FHA Ca peptide) was “approximately 9100 cells/ml”, the BBB permeability ([4]; Experiment #1, 50 nmol, radioactivity in whole blood present in CSF) was 5.8 ± 2.7% and the BBB permeability ([4]; Experiment #2, 100 nmol) was 3.0 ± 2.2%. The Leukocytosis ([4]; Experiment #2, 100 nmol i.v.) was 6,800 ± 6,500 cells/ml, the Leukocytosis ([4]; Experiment #2, 100 nmol i.v., listed as FHA Ca peptide) was roughly 6800 cells/ml and the “Inhibition of blood-brain barrier permeability” value ([4]; rat, in vivo) was “appeared to be dose dependent”.
